Source: the supplement of paper PMC8728848
This excerpt belongs to a sample that is enriched for the strongest signals.

Tested on: Neu5Ac(a2-3)[GalNAc(b1-4)]Gal(b1-4)GlcNAc(b1-3)GalNAc
Assay: glycan array binding signal (z-score within array); higher = stronger binding
Conditions: glycan notation: IUPAC condensed, linker removed
Outline: (§1)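 The binding signal is a Z-score computed within each array and averaged over linkers. Arrays of the same protein sequence at different concentrations or buffers were also averaged together. Data originate from 3228 arrays in the Consortium for Functional Glycomics database, kept only where the protein sequence was available.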

Row | Substance | glycan array binding signal (z-score)
1 | M-Ficolin A256V (Homo sapiens) (chain not printed) | 6.89
2 | M-Ficolin Y271F (Homo sapiens) (chain not printed) | 5.4
3 | M-Ficolin G221F (Homo sapiens) (chain not printed) | 4.86
4 | NCAM1 (Homo sapiens) (chain not printed) | -0.411
5 | M-Ficolin G221F A256V (Homo sapiens) (chain not printed) | 4.39

Tested on: Neu5Ac(a2-3)[GalNAc(b1-4)]Gal(b1-4)GlcNAc
Assay: as above
Conditions: glycan notation: IUPAC condensed, linker removed
Outline: as §1

Row | Substance | glycan array binding signal (z-score)
6 | L-Ficolin (Homo sapiens) (chain not printed) | 0.077
7 | M-Ficolin (Homo sapiens) (chain not printed) | 3.47
8 | M-Ficolin A256V (Homo sapiens) (chain not printed) | 5.85
9 | M-Ficolin Y271F (Homo sapiens) (chain not printed) | 2.75
10 | M-Ficolin G221F (Homo sapiens) (chain not printed) | 5.47
11 | VWF (Homo sapiens) (chain not printed) | -0.299
12 | M-Ficolin G221F A256V (Homo sapiens) (chain not printed) | 5.07
